Results on 42 compounds are retold here after paper PMC4336329 (PLoS ONE, 2015).

Hit rate of the full screen: of about 310,000 compounds, about 14,000 (4.5%) showed an effect of 50% or more. The effect is printed as a negative number. The list shows a part of the results.
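Also: peak tail current of the secondary pulse compared with the same well before compound.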

The target in the assay is human ether-à-go-go-related gene (hERG) potassium channel (human, UniProt Q12809). Put plainly: primary screen, population patch clamp on CHO cells stably expressing hERG.
Sequence of human ether-à-go-go-related gene (hERG) potassium channel (Q12809 whole entry, looked up): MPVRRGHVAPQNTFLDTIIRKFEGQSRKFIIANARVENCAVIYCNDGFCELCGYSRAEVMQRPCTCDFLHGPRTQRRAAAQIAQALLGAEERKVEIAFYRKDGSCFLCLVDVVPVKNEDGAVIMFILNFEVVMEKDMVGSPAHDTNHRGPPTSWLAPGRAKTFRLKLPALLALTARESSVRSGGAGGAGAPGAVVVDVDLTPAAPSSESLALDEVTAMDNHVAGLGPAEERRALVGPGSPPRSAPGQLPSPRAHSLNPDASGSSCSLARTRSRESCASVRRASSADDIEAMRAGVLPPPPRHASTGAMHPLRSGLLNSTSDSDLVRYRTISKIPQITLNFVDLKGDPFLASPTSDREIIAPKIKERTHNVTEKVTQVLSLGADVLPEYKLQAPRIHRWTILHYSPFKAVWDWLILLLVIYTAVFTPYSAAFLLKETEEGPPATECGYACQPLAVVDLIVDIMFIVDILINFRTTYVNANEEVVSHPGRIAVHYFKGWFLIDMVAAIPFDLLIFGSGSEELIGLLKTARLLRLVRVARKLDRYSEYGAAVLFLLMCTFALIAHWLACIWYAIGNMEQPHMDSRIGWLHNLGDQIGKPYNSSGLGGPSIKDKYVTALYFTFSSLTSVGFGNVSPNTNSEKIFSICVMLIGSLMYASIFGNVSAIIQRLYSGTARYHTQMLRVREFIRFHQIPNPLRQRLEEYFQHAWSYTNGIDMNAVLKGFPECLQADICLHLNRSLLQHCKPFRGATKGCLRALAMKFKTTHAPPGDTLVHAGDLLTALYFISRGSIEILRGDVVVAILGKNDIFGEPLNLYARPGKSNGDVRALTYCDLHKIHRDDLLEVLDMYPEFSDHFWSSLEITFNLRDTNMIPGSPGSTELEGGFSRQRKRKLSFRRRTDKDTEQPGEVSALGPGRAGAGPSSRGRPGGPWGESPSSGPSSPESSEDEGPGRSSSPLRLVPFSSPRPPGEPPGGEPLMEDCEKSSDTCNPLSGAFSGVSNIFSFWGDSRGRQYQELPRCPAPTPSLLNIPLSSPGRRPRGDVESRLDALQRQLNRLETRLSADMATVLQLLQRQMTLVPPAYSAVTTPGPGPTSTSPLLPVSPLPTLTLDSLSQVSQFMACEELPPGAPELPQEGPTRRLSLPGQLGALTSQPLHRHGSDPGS
With `CCc1ccc(N(CC(=O)N2CCOCC2)S(C)(=O)=O)cc1`, the “hERG current change (%, negative = inhibition) at 10uM” value amounted to 16.1%.
In the case of `CCOc1ccc(C(=O)NCC(=O)NCCCn2nc(C)cc2C)cc1OCC`, the “hERG current change (%, negative = inhibition) at 10uM” value worked out at 9.39%.
In the case of `Cc1ccccc1-n1ncc2c1CC(C)(C)CC2NC(=O)CSc1ccncc1` (stereo not drawn) it was -8.26%; in that of `OC1/C(=C/c2ccc(Cl)cc2Cl)N2CCC1CC2` (stereo not drawn), 3.66%.
Next, `Cc1cc2c(ccc3c2no[n+]3[O-])nn1`: -10.6%; `CC(=O)O[C@H]1CSC[C@H]1NC(=O)c1ccccc1`: 8.4%; `C[C@H](NC(=O)c1nc[nH]c1C(=O)N[C@@H](Cc1ccccc1)C(=O)OCc1ccccc1)C(=O)OCc1ccccc1`: 8.42%.
Consider `Fc1ccccc1OCCCCCN1CCCC1`, for which the “hERG current change (%, negative = inhibition) at 10uM” value was -9.31%.
`COC(=O)c1ccc(CSc2nc(C(F)(F)F)c3c(c2C#N)CCC3)o1`: the “hERG current change (%, negative = inhibition) at 10uM” value was -3.53%.
In the case of `CC(Sc1cnc2ccccc2n1)C(=O)O` (stereo not drawn) it was 15.9%.
Next, `NS(=O)(=O)c1ccc(CNC(=O)/C=C/c2ccccc2[N+](=O)[O-])cc1`: 0.127%.
Next, `COc1cccc(NC(=O)c2ccnc(N3CCC(C(=O)NCc4cc(OC)ccc4OC)CC3)c2)c1`: -31.7%; `Cn1c(=O)c2c(nc(SCc3nc(N)nc(N4CCCCC4)n3)n2C)n(C)c1=O`: -5.28%.
As for `Cc1cccc(Nc2nnc(SCC(=O)NCc3cccs3)s2)c1`, the “hERG current change (%, negative = inhibition) at 10uM” value turned out to be 21.9%.
As to `Fc1ccccc1N1CCN(CC2CC3C=CC2C3)CC1` (stereo not drawn), the “hERG current change (%, negative = inhibition) at 10uM” value is -1.09%.
In the case of `COc1ccc(CN2CC3CC(C2)c2cccc(=O)n2C3)cc1OC` (stereo not drawn) it was -5.24%; in that of `COc1ccc(S(=O)(=O)N(C)CC(=O)N2CCN(Cc3ccccc3)CC2)cc1C`, -36.8%.
Consider `Cc1ccc(-n2ncc3c(NNC(=O)c4ccco4)ncnc32)cc1C`, for which the “hERG current change (%, negative = inhibition) at 10uM” value amounted to 12.2%.
Take `O=[N+]([O-])c1ccc(Cl)c(NC(=S)N2CCCC2)c1`: the “hERG current change (%, negative = inhibition) at 10uM” value amounted to 5.47%.
In the case of `CNS(=O)(=O)c1cccc(C(=O)OCC(=O)Nc2sc3c(c2C#N)CCCCC3)c1` it was 22.8%; in that of `CNC(=O)CN(c1ccc(C(C)C)cc1)S(C)(=O)=O`, 7.73%.
Next, `O=C(N[C@@H](Cc1ccccc1)C(=O)N1CCC2(CC1)NCCc1[nH]cnc12)c1cccc(Br)c1`: 1.36%; `O=C([O-])CCC/C=C\C[C@@H]1[C@@H](/C=C/[C@@H](O)COc2cccc(Cl)c2)[C@H](O)C[C@@H]1O.[Na+]`: 11.3%; `CN(C)S(=O)(=O)c1cccc(-c2nn(-c3ccccc3)cc2/C=C(\C#N)c2nc3ccccc3[nH]2)c1`: 10.5%.
Take `CCOC(=O)C1CCCN(S(=O)(=O)c2c(C)[nH]c(C)c2C(=O)N2CCCC2)C1` (stereo not drawn): the “hERG current change (%, negative = inhibition) at 10uM” value was found to be 7.75%.
Regarding `Cc1noc(C)c1C(=O)N1CCC(Cc2ccccc2)CC1`, the “hERG current change (%, negative = inhibition) at 10uM” value is reported as -14.5%.
`O=C(COc1ccc(Cl)cc1)NCCCNC(=O)c1ccncc1`: the “hERG current change (%, negative = inhibition) at 10uM” value is -36.1%.
For the compound `CC(C)CCNC(=O)C1CCN(c2nnc(-n3cccc3)s2)CC1`, the “hERG current change (%, negative = inhibition) at 10uM” value was -21.1%.
In the case of `COC(=O)C1=C(c2ccc(-c3ccccc3)c(F)c2)C[C@@H]2CC[C@H]1N2C(=O)NCCO` it was -2.32%.
Next, `Cc1ccc(CNC(=O)CN2c3cccc4cccc(c34)S2(=O)=O)cc1`: -5.89%.
In the case of `CCOC(=O)N1CCC(NC(=O)c2ccc3c(c2)N=C(C)c2c(C)ccc(C)c2S3)CC1`, the “hERG current change (%, negative = inhibition) at 10uM” value came to 11.1%.
In the case of `O=C(O)c1ccc(NS(=O)(=O)c2ccc(Cl)c(C(=O)Nc3ccccc3[N+](=O)[O-])c2)cc1` it was 7.28%; in that of `Cc1nc2ccccc2c2oc(C(=O)NCCCN3CCCC3=O)cc12`, -2.12%; in that of `O=C(C1=C[C@H](C2CCCCC2)C[C@H](OCc2ccc(CO)cc2)O1)N1CCN(Cc2ccccc2)CC1`, -67.6%.
In the case of `CCN(CC)S(=O)(=O)c1ccc2c(c1)c(=O)c(C(=O)NCc1ccco1)cn2C` it was -3.93%; in that of `O=C1C(=O)N(CCCN2CCOCC2)C(c2ccc(Cl)cc2)/C1=C(/O)c1ccc(F)cc1` (stereo not drawn), 21.2%; in that of `Cc1ccc(S(=O)(=O)NCCC(=O)N2CCC(C)CC2)cc1`, -11.1%.
Turning to `CCOC(=O)c1c(C)n(C(C)C)c2ccc(OC(=O)c3ccc(N4C(=O)CCC4=O)cc3)cc12`, the “hERG current change (%, negative = inhibition) at 10uM” value worked out at 24.4%.
In the case of `COc1ccccc1NC(=O)CCCN1C(=O)C2CC=CCC2C1=O` (stereo not drawn) it was 11.1%.
Regarding `O=C(O)c1cccc(S(=O)(=O)N2CCC(n3nnc4cc(C(F)(F)F)ccc43)CC2)c1`, the “hERG current change (%, negative = inhibition) at 10uM” value worked out at 20.7%.
In the case of `CC(C)c1ccccc1OCCNC(=O)c1cccnc1` it was -1.33%; in that of `CCOc1ccc(NC(=O)CCS(=O)(=O)c2ccc(Br)cc2)cc1`, 12.9%.
